# The list shows a part of the results. Binding of human transcription factors and regulators to the viral nucleoprotein by AlphaScreen, crude cell-free proteins, amounts not normalised, one pass. Fold of the Venus control; higher = more signal. No active / inactive call. Single-pass screen; sequences are the whole Swiss-Prot entries looked up by name.
# Test system: nucleoprotein N of Crimean-Congo hemorrhagic fever virus
# Assay: AlphaScreen luminescence signal relative to Venus negative control (fold); higher = stronger binding to CCHFV N
# Description: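 AlphaScreen binding of cell-free made, FLAG-GST-tagged human transcription factors and regulators (crude translation products) to biotinylated N protein; signal as fold of the FLAG-GST-Venus control. One pass.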
row,Substance,AlphaScreen luminescence signal
1,"HOXB4, P17483",6.79
2,"KLF7, O75840",2.98
3,"FIGLA, Q6QHK4",2.47
4,"ZNF546, Q86UE3",3.63
5,"ZNF157, P51786",2.56
6,"ZKSCAN8, Q15776",1.49
7,"ZNF268, Q14587",3.63
8,"ZNF274, Q96GC6",3.53
9,"HNRNPAB, Q99729",3.81
10,"HOXB3, P14651",3.67
11,"HOXC5, Q00444",4.23
12,"TAL1, P17542",3.26
13,"HOXA6, P31267",2.84
14,"ZNF304, Q9HCX3",2.47
15,"TAL2, Q16559",6.19
16,"TAF5L, O75529",2.37
17,"SOX15, O60248",3.95
18,"DMRTB1, Q96MA1",3.07
19,"ZNF26, P17031",3.26
20,"ZNF300, Q96RE9",2.33
21,"BHLHA15, Q7RTS1",2.19
22,"ZNF43, P17038",2.23
23,"SPEN, Q96T58",1.4
24,"EP300, Q09472",1.91
25,"ZNF621, Q6ZSS3",1.53
26,"TLX1, P31314",4.47

row,Substance,AlphaScreen luminescence signal
1,"ZNF320, A2RRD8",3.07
2,"ZNF175, Q9Y473",2
3,"STAT2, P52630",2.23
4,"ALX1, Q15699",1.81
5,"HNRNPK, P61978",5.16
6,"SOX6, P35712",3.91
7,"HIVEP3, Q5T1R4",1.58
8,"PAX5, Q02548",2.84
9,"LYL1, P12980",2.09
10,"ZNF606, Q8WXB4",2.51
11,"KLF4, O43474",10.8
12,"ARNT2, Q9HBZ2",1.81
13,"E2F4, Q16254",1.26
14,"E2F3, O00716",4.37
15,"EGR4, Q05215",3.3
16,"ZNF761, Q86XN6",2.74
17,"PSMA6, P60900",2
18,"TFAP2B, Q92481",3.58
19,"HCFC1, P51610",2.19
20,"NFIA, Q12857",3.49
21,"ZNF816, Q0VGE8",4.09
22,"SOX14, O95416",2.14
23,"SOX4, Q06945",13.9
24,"PAX7, P23759",2.47
25,"GFI1, Q99684",2.05
26,"ZSCAN20, P17040",1.63

row,Substance,AlphaScreen luminescence signal
1,"ZNF302, Q9NR11",2.05
2,"E2F2, Q14209",2.09
3,"ZNF699, Q32M78",4.05
4,"HOXC8, P31273",2.74
5,"MEF2C, Q06413",1.77
6,"PAX3, P23760",3.58
7,"ZNF7, P17097",2.51
8,"TGIF2, Q9GZN2",2.19
9,"HOXB5, P09067",8.47
10,"VSX1, Q9NZR4",1.86
11,"HOXA3, O43365",4.79
12,"ZNF112, Q9UJU3",4.23
13,"ZNF354A, O60765",2.42
14,"ARNTL, O00327",2.65
15,"HOXA7, P31268",3.07
16,"MSX2, P35548",2.28
17,"ZNF182, P17025",5.77
18,"ZSCAN12, O43309",1.12
19,"EAF2, Q96CJ1",1.02
20,"ZNF33A, Q06730",2.65
21,"SOX13, Q9UN79",4.93
22,"HOXD8, P13378",1.21
23,"EGR3, Q06889",5.35
24,"ZNF829, Q3KNS6",1.86
25,"MEOX2, P50222",3.49
26,"KLF6, Q99612",3.21

row,Substance,AlphaScreen luminescence signal
1,"EZH2, Q15910",2.47
2,"HMGN3, Q15651",13.8
3,"ZNF85, Q03923",5.12
4,"ZNF496, Q96IT1",2.47
5,"TFAP2A, P05549",4.28
6,"ZNF354B, Q96LW1",3.58
7,"TFAP2E, Q6VUC0",4.33
8,"NFIC, P08651",3.49
9,"NCOA3, Q9Y6Q9",1.4
10,"PITX2, Q99697",1.72
11,"ZNF677, Q86XU0",2.51
12,"CRX, O43186",2.7
13,"KLF13, Q9Y2Y9",5.16
14,"ZFP82, Q8N141",2.09
15,"RCAN1, P53805",2.42
16,"ZNF461, Q8TAF7",2.37
17,"ZNF607, Q96SK3",1.49
18,"HOXA10, P31260",4.05
19,"ZNF436, Q9C0F3",1.95
20,"KLF3, P57682",3.81
21,"PAX9, P55771",2.19
22,"EPAS1, Q99814",2.05
23,"PAX6, P26367",3.77
24,"HOXB2, P14652",2.79
25,"ZNF239, Q16600",2.33
26,"ZNF552, Q9H707",2.51

row,Substance,AlphaScreen luminescence signal
1,"HOXC4, P09017",5.12
2,"ZNF432, O94892",3.63
3,"CREBBP, Q92793",1.26
4,"HOXB6, P17509",6.6
5,"ZFP28, Q8NHY6",3.16
6,"ZNF396, Q96N95",1.67
7,"ZNF90, Q03938",2.51
8,"TFAP2C, Q92754",3.53
9,"MIXL1, Q9H2W2",1.12
10,"ZSCAN16, Q9H4T2",2.6
11,"SOX12, O15370",3.91
12,"ZSCAN32, Q9NX65",1.12
13,"SP4, Q02446",1.91
14,"ZNF780A, O75290",2.56
15,"ZNF345, Q14585",1.58
16,"HOXA2, O43364",3.16
17,"ZNF254, O75437",5.3
18,"ZKSCAN5, Q9Y2L8",1.91
19,"ZFP14, Q9HCL3",2.7
20,"HOXA5, P20719",19
21,"ISX, Q2M1V0",1.72
22,"MYB, P10242",2.47
23,"ZFP30, Q9Y2G7",2.6
24,"MTF1, Q14872",1.26
25,"MAFF, Q9ULX9",2.56

# From the supplement of paper PMC12423691
